# Measurements taken from the supplement of paper PMC8728848.
# The list shows a part of the results.
# Experiments:
# Assay in all cases: glycan array binding signal (z-score within array); higher = stronger binding
# Settings in all cases: glycan notation: IUPAC condensed, linker removed
# [1] = target: GlcNAc(b1-3)Gal(b1-4)GlcNAc(b1-2)[GlcNAc(b1-3)Gal(b1-4)GlcNAc(b1-6)]Man(a1-6)[GlcNAc(b1-3)Gal(b1-4)GlcNAc(b1-2)Man(a1-3)]Man(b1-4)GlcNAc(b1-4)GlcNAc
# Method in brief: (§1)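 Glycan array binding is given as a within-array Z-score, which can be read as non-binding when negative. The arrays, 3228 of them, came from the Consortium for Functional Glycomics database and were retained only where the protein sequence was available. Z-scores were averaged across arrays of the same protein sequence at different concentrations or buffers and across linkers.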
# [2] = target: GlcNAc(b1-3)Gal(b1-4)GlcNAc(b1-3)Gal(b1-4)GlcNAc
# Method in brief: as §1
# [3] = target: GlcNAc(b1-3)Gal(b1-4)GlcNAc(b1-3)Gal(b1-4)GlcNAc(b1-2)Man(a1-3)[GlcNAc(b1-3)Gal(b1-4)GlcNAc(b1-3)Gal(b1-4)GlcNAc(b1-2)Man(a1-6)]Man(b1-4)GlcNAc(b1-4)GlcNAc
# Method in brief: as §1
# [4] = target: GlcNAc(b1-3)Gal(b1-4)GlcNAc(b1-3)Gal(b1-4)GlcNAc(b1-2)Man(a1-3)[GlcNAc(b1-3)Gal(b1-4)GlcNAc(b1-3)Gal(b1-4)GlcNAc(b1-2)Man(a1-6)]Man(b1-4)GlcNAc(b1-4)[Fuc(a1-6)]GlcNAc
# Method in brief: as §1
# [5] = target: GlcNAc(b1-3)Gal(b1-4)GlcNAc(b1-3)Gal(b1-4)GlcNAc(b1-2)[GlcNAc(b1-3)Gal(b1-4)GlcNAc(b1-3)Gal(b1-4)GlcNAc(b1-6)]Man(a1-6)[GlcNAc(b1-3)Gal(b1-4)GlcNAc(b1-3)Gal(b1-4)GlcNAc(b1-2)Man(a1-3)]Man(b1-4)GlcNAc(b1-4)[Fuc(a1-6)]GlcNAc
# Method in brief: as §1
# [6] = target: GlcNAc(b1-3)Gal(b1-4)GlcNAc(b1-3)Gal(b1-4)GlcNAc(b1-3)Gal(b1-4)GlcNAc(b1-2)Man(a1-3)[GlcNAc(b1-3)Gal(b1-4)GlcNAc(b1-3)Gal(b1-4)GlcNAc(b1-3)Gal(b1-4)GlcNAc(b1-2)Man(a1-6)]Man(b1-4)GlcNAc(b1-4)GlcNAc
# Method in brief: as §1
# [7] = target: GlcNAc(b1-3)Gal(b1-4)GlcNAc(b1-3)Gal(b1-4)GlcNAc(b1-3)Gal(b1-4)GlcNAc(b1-2)Man(a1-3)[GlcNAc(b1-3)Gal(b1-4)GlcNAc(b1-3)Gal(b1-4)GlcNAc(b1-3)Gal(b1-4)GlcNAc(b1-2)Man(a1-6)]Man(b1-4)GlcNAc(b1-4)[Fuc(a1-6)]GlcNAc
# Method in brief: as §1
# [8] = target: GlcNAc(b1-3)Gal(b1-4)GlcNAc(b1-3)Gal(b1-4)GlcNAc(b1-3)Gal(b1-4)GlcNAc(b1-2)[GlcNAc(b1-3)Gal(b1-4)GlcNAc(b1-3)Gal(b1-4)GlcNAc(b1-3)Gal(b1-4)GlcNAc(b1-6)]Man(a1-6)[GlcNAc(b1-3)Gal(b1-4)GlcNAc(b1-3)Gal(b1-4)GlcNAc(b1-3)Gal(b1-4)GlcNAc(b1-2)Man(a1-3)]Man(b1-4)GlcNAc(b1-4)[Fuc(a1-6)]GlcNAc
# Method in brief: as §1
# [9] = target: GlcNAc(b1-3)Gal(b1-4)GlcNAc(b1-3)Gal(b1-4)GlcNAc(b1-3)Gal(b1-4)GlcNAc(b1-3)Gal(b1-4)GlcNAc(b1-2)Man(a1-3)[GlcNAc(b1-3)Gal(b1-4)GlcNAc(b1-3)Gal(b1-4)GlcNAc(b1-3)Gal(b1-4)GlcNAc(b1-3)Gal(b1-4)GlcNAc(b1-2)Man(a1-6)]Man(b1-4)GlcNAc(b1-4)GlcNAc
# Method in brief: as §1
# [10] = target: GlcNAc(b1-3)Gal(b1-4)GlcNAc(b1-3)Gal(b1-4)GlcNAc(b1-3)Gal(b1-4)GlcNAc(b1-3)Gal(b1-4)GlcNAc(b1-2)Man(a1-3)[GlcNAc(b1-3)Gal(b1-4)GlcNAc(b1-3)Gal(b1-4)GlcNAc(b1-3)Gal(b1-4)GlcNAc(b1-3)Gal(b1-4)GlcNAc(b1-2)Man(a1-6)]Man(b1-4)GlcNAc(b1-4)[Fuc(a1-6)]GlcNAc
# Method in brief: as §1
# [11] = target: GlcNAc(b1-3)Gal(b1-4)GlcNAc(b1-3)Gal(b1-4)GlcNAc(b1-3)Gal(b1-4)GlcNAc(b1-3)Gal(b1-4)GlcNAc(b1-2)[GlcNAc(b1-3)Gal(b1-4)GlcNAc(b1-3)Gal(b1-4)GlcNAc(b1-3)Gal(b1-4)GlcNAc(b1-3)Gal(b1-4)GlcNAc(b1-6)]Man(a1-6)[GlcNAc(b1-3)Gal(b1-4)GlcNAc(b1-3)Gal(b1-4)GlcNAc(b1-3)Gal(b1-4)GlcNAc(b1-3)Gal(b1-4)GlcNAc(b1-2)Man(a1-3)]Man(b1-4)GlcNAc(b1-4)[Fuc(a1-6)]GlcNAc
# Method in brief: as §1
# [12] = target: GlcNAc(b1-3)Gal(b1-4)GlcNAc(b1-3)Gal(b1-4)GlcNAc(b1-3)GalNAc
# Method in brief: as §1
# [13] = target: GlcNAc(b1-3)Gal(b1-4)GlcNAc(b1-3)GalNAc
# Method in brief: as §1
# [14] = target: GlcNAc(b1-3)Gal(b1-4)GlcNAc(b1-3)[GlcNAc(b1-3)Gal(b1-4)GlcNAc(b1-3)]GalNAc
# Method in brief: as §1
# [15] = target: GlcNAc(b1-3)Gal(b1-4)GlcNAc(b1-6)[Gal(b1-3)]GalNAc
# Method in brief: as §1
# [16] = target: GlcNAc(b1-3)Gal(b1-4)GlcNAc(b1-6)[GlcNAc(b1-3)Gal(b1-3)]GalNAc
# Method in brief: as §1
# [17] = target: GlcNAc(b1-3)Gal(b1-4)GlcNAc(b1-6)[GlcNAc(b1-3)]Gal(b1-4)GlcNAc
# Method in brief: as §1
# [18] = target: GlcNAc(b1-3)GalNAc
# Method in brief: as §1
# [19] = target: GlcNAc(b1-3)Man
# Method in brief: as §1
# [20] = target: GlcNAc(b1-3)[GlcNAc(b1-4)][GlcNAc(b1-6)]GlcNAc
# Method in brief: as §1
# [21] = target: GlcNAc(b1-3)[GlcNAc(b1-6)]Gal(b1-4)GlcNAc
# Method in brief: as §1
# [22] = target: GlcNAc(b1-3)[GlcNAc(b1-6)]GalNAc
# Method in brief: as §1
# [23] = target: GlcNAc(b1-3)[GlcNAc(b1-6)]GlcNAc
# Method in brief: as §1
# [24] = target: GlcNAc(b1-4)Gal(b1-4)GlcNAc
# Method in brief: as §1
# [25] = target: GlcNAc(b1-4)GlcNAc
# Method in brief: as §1
# [26] = target: GlcNAc(b1-4)GlcNAc(b1-4)GlcNAc
# Method in brief: as §1
# [27] = target: GlcNAc(b1-4)GlcNAc(b1-4)GlcNAc(b1-4)GlcNAc(b1-4)GlcNAc
# Method in brief: as §1
# [28] = target: GlcNAc(b1-4)GlcNAc(b1-4)GlcNAc(b1-4)GlcNAc(b1-4)GlcNAc(b1-4)GlcNAc
# Method in brief: as §1
# [29] = target: GlcNAc(b1-4)[GlcNAc(b1-6)]GalNAc
# Method in brief: as §1
# [30] = target: GlcNAc(b1-6)Gal(b1-4)GlcNAc
# Method in brief: as §1
# [31] = target: GlcNAc(b1-6)GalNAc
# Method in brief: as §1
# [32] = target: GlcNAc6S(b1-3)Gal(b1-4)GlcNAc
# Method in brief: as §1
# [33] = target: Kdn(a2-3)Gal(b1-3)GalNAc
# Method in brief: as §1
# [34] = target: Kdn(a2-3)Gal(b1-3)GlcNAc
# Method in brief: as §1
# [35] = target: Kdn(a2-3)Gal(b1-4)Glc
# Method in brief: as §1
# [36] = target: Kdn(a2-3)Gal(b1-4)GlcNAc
# Method in brief: as §1
# [37] = target: Kdn(a2-3)Gal(b1-4)[Fuc(a1-3)]GlcNAc
# Method in brief: as §1
# [38] = target: Kdn(a2-6)Gal(b1-4)GlcNAc
# Method in brief: as §1
# [39] = target: Man(a1-2)Man(a1-2)Man(a1-3)Man
# Method in brief: as §1
# [40] = target: Man(a1-2)Man(a1-2)Man(a1-3)[Man(a1-2)Man(a1-3)[Man(a1-2)Man(a1-6)]Man(a1-6)]Man(b1-4)GlcNAc(b1-4)GlcNAc
# Method in brief: as §1
# [41] = target: Man(a1-2)Man(a1-2)Man(a1-3)[Man(a1-2)Man(a1-6)[Man(a1-3)]Man(a1-6)]Man(b1-4)GlcNAc(b1-4)GlcNAc
# Method in brief: as §1
# [42] = target: Man(a1-2)Man(a1-2)Man(a1-6)[Man(a1-3)]Man
# Method in brief: as §1
# [43] = target: Man(a1-2)Man(a1-3)Man
# Method in brief: as §1
# [44] = target: Man(a1-2)Man(a1-3)[Man(a1-2)Man(a1-6)]Man
# Method in brief: as §1
# [45] = target: Man(a1-2)Man(a1-3)[Man(a1-2)Man(a1-6)]Man(a1-6)[Man(a1-2)Man(a1-2)Man(a1-3)]Man
# Method in brief: as §1
binder,measurement,setting,value
"AAA (Anguilla anguilla), Q7SIC1 (protein) VIPEGYTQENVAVRGKATQSAQLRGEHAANSEASNAIDGNRDSNFYHGSCTHSSGQANPWWRVDLLQVYTITSVTITNRGDCCGERISGAEINIGQHLASNGVNNPECSVIGSMATGETKTFHCPAPMIGRYVVTYLPTSESLHLCEVEVNVDKPAAA",glycan array binding signal (z-score),[1],0.12
same,glycan array binding signal (z-score),[2],-0.295
same,glycan array binding signal (z-score),[3],0.569
same,glycan array binding signal (z-score),[4],0.047
same,glycan array binding signal (z-score),[5],0.944
same,glycan array binding signal (z-score),[6],0.767
same,glycan array binding signal (z-score),[7],0.309
same,glycan array binding signal (z-score),[8],1.18
same,glycan array binding signal (z-score),[9],0.912
same,glycan array binding signal (z-score),[10],0.37
same,glycan array binding signal (z-score),[11],1.16
same,glycan array binding signal (z-score),[12],-0.231
same,glycan array binding signal (z-score),[13],-0.213
same,glycan array binding signal (z-score),[14],-0.146
same,glycan array binding signal (z-score),[15],-0.298
same,glycan array binding signal (z-score),[16],-0.107
same,glycan array binding signal (z-score),[17],0.799
same,glycan array binding signal (z-score),[18],-0.105
same,glycan array binding signal (z-score),[19],-0.161
same,glycan array binding signal (z-score),[20],-0.21
same,glycan array binding signal (z-score),[21],-0.108
same,glycan array binding signal (z-score),[22],-0.145
same,glycan array binding signal (z-score),[23],1.05
same,glycan array binding signal (z-score),[24],-0.222
same,glycan array binding signal (z-score),[25],2.2
same,glycan array binding signal (z-score),[26],5.55
same,glycan array binding signal (z-score),[27],7.88
same,glycan array binding signal (z-score),[28],6.77
same,glycan array binding signal (z-score),[29],-0.16
same,glycan array binding signal (z-score),[30],1.03
same,glycan array binding signal (z-score),[31],-0.088
same,glycan array binding signal (z-score),[32],-0.18
same,glycan array binding signal (z-score),[33],-0.023
same,glycan array binding signal (z-score),[34],-0.157
same,glycan array binding signal (z-score),[35],-0.219
same,glycan array binding signal (z-score),[36],-0.3
same,glycan array binding signal (z-score),[37],-0.051
same,glycan array binding signal (z-score),[38],-0.187
same,glycan array binding signal (z-score),[39],-0.097
same,glycan array binding signal (z-score),[40],-1.19
same,glycan array binding signal (z-score),[41],0.733
same,glycan array binding signal (z-score),[42],-0.028
same,glycan array binding signal (z-score),[43],-0.072
same,glycan array binding signal (z-score),[44],-0.229
same,glycan array binding signal (z-score),[45],-0.252
